From the RNAGym collection of RNA variant scans (doi:10.7554/elife.90254) come the findings set out here.

The chains are these.
B1: LINE1-mini (parent)
chain: GGCAGAGCUCAACACAGCGUGGCAAAGUGGCUGUGGCUAGACUGCC

The source gives no read counts; variants with many changes may rest on few reads.

The variants in the data set derive from B1. The experiment in a line: self-cleavage, relative activity (ratio to wild type); higher = more cleavage; in vitro, sequencing; the parent is a self-cleaving ribozyme.
As for A4G G21A A24G G36U C37U, the self-cleavage turned out to be 0.45.
Next, G1C G2A G19A C45U: 0.39; C10A U28G U34G: 0.02.
Consider G27C G36A C42U, for which the self-cleavage was 0.03.
Next, G2A A4U C8U C10G C15A: 0.04; G2C U43G C45U: 0.03; C8A U9G C23A A26G G40C: 0.01.
Next, A6C C8A C42U: 0.33.
Next, G5A G19U U20C C23U G35C: 0.05; A11G U28C G40C: 0.01.
For the variant C8A G44C C45U, the self-cleavage is 0.14.
Next, C15U A16U U43G: 0.12.
Turning to G1A G7A C10U C18U G40C, the self-cleavage is 0.12.
Take G1A G29A U34C G44C: the self-cleavage stood at 0.07.
With G5C C13A C31U U34G C37U, the self-cleavage amounted to 0.06.
Next, G1C A24U C37A: 0.04; A4G C8G C23U U43C: 0.03; G2A C10G G22A A39C C45A: 0.03.
Next, G5C C13A A16U G33U: 0.15; C15U C18A G19C U34G: 0.01.
Next, C10G A14U C18U: 0.03; A6G U9C C10G A16U U20A G22U U34G: 0.01; A11C A14G G17A U20C G27A C31A C46A: 0.
Regarding G7U C31G G40A, the self-cleavage is 0.03.
Next, U20C G35C G44C: 0.02; C15U U20C C31U: 0.12.
Next, A6C A11C G44C: 0.01.
Next, A6G U9C G17C G19A A26C: 0.01; C18U G29A C46A: 1.13; A24G C37A G40A C46G: 0.18.
Regarding U9A A25U U43A, the self-cleavage was 0.48.
Next, A24U G35A G40A: 0.05; C13G C15U C45U: 0.1.
Next, A6U C10A U28G: 0.04; U9C A12U G19A A24C G36C C46G: 0.01; G1U G2A G5U U20C G22U G33C: 0.06.
Next, C10G G19U U20G U34A: 0.08; A11C A12U A26C: 0.02; A16U C18U G19C: 1.17.
With G1A C15A A24C, the self-cleavage amounted to 0.04.
Next, A6G A26C U34A: 0.04.
Next, C3A U32G G40A C42G: 0.17; C10A C37A U38C: 0.01.
Consider A26U U34G C45U, for which the self-cleavage stood at 0.07.
In the case of C18U U20A G27U G30A, the self-cleavage was found to be 0.69.
Next, A4G A6U C10U G36A: 0.05.
Next, G2C G27A U43C: 0.01.
As to G1U G17A C42A, the self-cleavage is 0.03.
Next, A12C C13G C18G A24C A41G: 0.02.
Next, G7A G19U U28C G36U: 0.05; G7A G35C C42A: 0.05; G17A C23G U34G C46A: 0.01.
Next, C18U A26G C31G: 0.05.
With A6C U28G G44C, the self-cleavage was 0.14.
Turning to C13A C23A G29A, the self-cleavage stood at 0.04.
Next, C8U A16G U20C: 0.08; A24C C31G U32G: 0.02; G19A G22U G29A C31U U34G: 0.02.
Next, C23U A25C G27A C31G: 0.05.
U9A C10A G22A U34A U43C G44U: the self-cleavage stood at 0.01.
Next, A12C C15G U38A: 0.03.
Next, A6G A11G G36A A39G: 0.01.
Next, C15A G22C A24C G27C: 0.04; G2C G33A C42U C46G: 0.08; C3G G7A C13G C15G A24G A25C A26G G27A G33U: 0.19.
In the case of G7C G29A G33U G40A U43A, the self-cleavage stood at 0.67.
Next, A14G G17A A41U: 0.02; C10A G17C G44C: 0.05.
Next, A16U C23U C37A: 0.08; C13A G19A A39U: 0.04.
Next, A12G U34G C46A: 0.01; A11U G19U G36U: 0.02.
With C18G G30C C37U, the self-cleavage worked out at 0.03.
Next, C8G C15A U20A A26G U38C U43C: 0.01; G1A G30C G33A: 0.08; U9C A12G U20G U28C: 0.01.
Next, G2A G7U G19C G22A: 0.06; A14G C18U A41U C45U: 0.1.
Next, C23A G29U C46A: 0.29; A12G G17C C23A C37A C45A: 0.02; C3G A26C G30U: 0.25.
With U9G U20C U28C, the self-cleavage came out at 0.14.
Next, A12U G21U G33C: 0.02.
As to G21U A25C G35U G36C, the self-cleavage was 0.09.
Next, G1U G5U A25U: 0.11; G17C G22U U32C G35A: 0.02; G5U A14U A16U C18A G22C A25G U28A: 0.03.
G1A C8G U9G A16C C37A A41U: the self-cleavage worked out at 0.3.
Next, G5C A11C U32C G44C: 0.04; G7U U20G C42G: 0.07; C13U C37U G44A C46G: 0.01.
Next, C3G A4C U28C G29U A39G C46A: 0.11.
Next, C15U G40U C46A: 0.06; C3A G21C U32G G44U: 0.23.
Regarding A24C G27A C37G, the self-cleavage is 0.03.
Regarding A25G G27A G30A U32A, the self-cleavage worked out at 0.06.
For G7C C10G A14U C15G U32C C45A, the self-cleavage turned out to be 0.02.
Next, A16C C23U U32G C45A: 0.22.
As to A4U C10A A16C U20C G33C C42A, the self-cleavage was determined as 0.01.
Next, U9C A25U A41G: 0.04; C8U U9G U20G: 0; C13U A16C G21U G27C G29U: 0.15.
Next, G27C G36C A39C: 0.04; C8A C23A A25C: 0.33; G1U C8U G36U C45A: 0.06.
Turning to G2C G5A G30U C31A A41C C42U, the self-cleavage worked out at 0.04.
Next, G2U C10U A12G C23A G30U: 0.01.
Next, C3U A4G G7C C45A: 0.18; C3U C8A C45A: 0.25; G1U A12U A14G A26G: 0.17.
Next, U28C G33U C45A: 0.13; C15U C23U U28C: 0.73.
For the variant G1U G17A G33C, the self-cleavage came to 0.
Next, G1U C31G C45A: 0.04.
Take C8A A12C G19A A25C U34A G44A C46A: the self-cleavage was determined as 0.01.
For G19U U34G U38A, the self-cleavage came out at 0.06.
Next, A11U G27A G29A: 0.22; C8U G17C G30U: 0.19.
Next, A4U G22A A39U: 0.05; G7U A16U G22U A26G C42G C45G: 0.1; A4C U9A G29U: 1.99.
Next, U9G A16U G17U U20C U34C G35U: 0.02.
As to G7A C10U G21C U28A G44C, the self-cleavage was found to be 0.02.
Next, C3A A4U G27A: 0.08; G2A C3G G19A G22A G33U: 0.22; G21C G22A U43G C45U: 0.03.
Next, C8A C18G C37A G44A: 1; U9G A11C G17C U20C: 0.02.
Next, G2C A12G G17U: 0.04; G27U G29C C31U A39C: 0.03.
As for A4U G36U C46U, the self-cleavage was 0.28.
Next, G7U A14G C18G U20A G21C U38A C42U: 0.12; C3G G5A G30A C31U: 0.03; C10U C18U G22A C42A: 0.01.
For the variant U20A A24C G33C, the self-cleavage stood at 0.04.
Next, G2U C8A C37U C46A: 0.02; A25C A39U A41U C42U C46G: 0.05.
Next, C10U U38A C42U: 0.04.
Next, G2U G17C G29C: 0.03.
Consider C3U C15A G30A, for which the self-cleavage was 0.14.
C3U G7U C15U: the self-cleavage came to 0.07.
Next, G5U A14U A26C C42U: 0.08.
Next, G1C G2A G5U U9C: 0.01; A12G G22A C23U U34A C42A U43G C46A: 0; C13G A14C G35A C37A A41U: 0.
With G1C C13A C15G, the self-cleavage was determined as 0.
With G19U G21C G30U G35U G36A, the self-cleavage amounted to 0.69.
Next, G19A G21C G22U G30C: 1.08; C3A A6G C10A C31U U38A C45A: 0.04; C13G U32G G40A: 0.07.
Next, C8G A14C G29U G35U C45A: 0.01; G36U C37G G44U: 0.01; C13G G21U G29U G40U: 0.12.
Next, A6C A11C A25U G44C C45U: 0.01.
With A11G C18A G27A U34G A41U, the self-cleavage turned out to be 0.01.
Next, G5U A14G A25U A26G: 0.08; C3A A12C G30C: 0.03.
Next, U9G G19A G22A: 0.03.
Next, G5C C13U G36U: 0.04; A16U G35U A39C G40U: 0.02; C18A C23A C46G: 0.26.
On to U9A G19U U28A, for which the self-cleavage came out at 0.04.
Next, A11C C13A G29C C31G: 0.02; G5A G7A C18G: 0.15; G1U C3G U28G: 0.05.
Take A25C G27U G33A: the self-cleavage is 0.04.
Next, A12C C13A G44U: 0.04.
